# Assay results from paper PMC4336329 (PLoS ONE, 2015).
# Out of some 310,000 compounds screened, about 2,200 (0.71%) showed an effect of 50% or more. Effects have a minus sign here. This is one part of the list.
# Target: human ether-à-go-go-related gene (hERG) potassium channel (human, UniProt Q12809)
# Test: primary screen, population patch clamp on CHO cells stably expressing hERG
# Chain of human ether-à-go-go-related gene (hERG) potassium channel (Q12809 whole entry, looked up): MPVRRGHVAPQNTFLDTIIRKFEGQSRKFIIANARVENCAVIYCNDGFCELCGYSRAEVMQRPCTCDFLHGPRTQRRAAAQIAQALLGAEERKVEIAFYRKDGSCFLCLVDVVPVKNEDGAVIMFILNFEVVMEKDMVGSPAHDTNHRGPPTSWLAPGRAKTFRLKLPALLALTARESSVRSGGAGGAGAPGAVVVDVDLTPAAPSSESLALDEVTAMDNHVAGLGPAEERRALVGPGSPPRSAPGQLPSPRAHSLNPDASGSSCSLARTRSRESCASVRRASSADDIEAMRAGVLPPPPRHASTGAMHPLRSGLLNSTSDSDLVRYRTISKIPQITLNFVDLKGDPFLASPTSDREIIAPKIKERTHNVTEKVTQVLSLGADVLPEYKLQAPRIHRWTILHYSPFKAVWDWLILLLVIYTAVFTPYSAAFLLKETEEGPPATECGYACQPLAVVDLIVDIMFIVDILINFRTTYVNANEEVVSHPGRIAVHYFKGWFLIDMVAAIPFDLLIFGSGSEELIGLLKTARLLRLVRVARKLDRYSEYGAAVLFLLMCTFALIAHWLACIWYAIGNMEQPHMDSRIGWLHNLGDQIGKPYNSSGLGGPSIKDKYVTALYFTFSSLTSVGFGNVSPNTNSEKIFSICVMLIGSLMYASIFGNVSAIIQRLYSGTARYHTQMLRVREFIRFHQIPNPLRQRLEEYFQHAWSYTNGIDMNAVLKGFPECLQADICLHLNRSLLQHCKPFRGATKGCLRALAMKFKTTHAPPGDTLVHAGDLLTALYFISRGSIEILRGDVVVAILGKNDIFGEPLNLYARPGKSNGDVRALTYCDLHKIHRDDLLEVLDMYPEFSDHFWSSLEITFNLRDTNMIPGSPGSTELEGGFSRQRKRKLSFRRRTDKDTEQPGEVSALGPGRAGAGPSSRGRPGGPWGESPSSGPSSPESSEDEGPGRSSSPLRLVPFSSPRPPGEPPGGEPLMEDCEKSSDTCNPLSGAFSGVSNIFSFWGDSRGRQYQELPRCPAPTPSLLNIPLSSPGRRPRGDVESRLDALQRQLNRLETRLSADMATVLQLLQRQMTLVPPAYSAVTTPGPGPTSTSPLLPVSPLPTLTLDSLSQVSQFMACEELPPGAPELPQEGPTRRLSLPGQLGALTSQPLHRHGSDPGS
row,SMILES,"hERG current change (%, negative = inhibition) at 1uM"
1,Cn1cnc(S(=O)(=O)Nc2ccccc2N2CCOCC2)c1,5.97%
2,COc1ccc(C(C(=O)NC2CCCC2)N(C(=O)c2ccco2)c2cc3c(cc2C(C)=O)OCO3)cc1 (centres unmarked),10.1%
3,COc1ccc(C(=O)OCc2ccc(C)cc2)cc1S(=O)(=O)N1CCOCC1,1.9%
4,COCCNC(=O)/C(C#N)=C/c1ccc(OCc2ccccc2)cc1,18%
5,Br.N=C(N)SCCc1cnc[nH]1,8.33%
6,COC(=O)c1ccc2c(=O)[nH]c(COC(=O)CCC(=O)c3ccc(Cl)cc3)nc2c1,2.37%
7,CCOc1ccccc1C(=O)NC1CCN(CC(=O)Nc2cc(OC)ccc2OC)CC1,-25.6%
8,O=C(C1CCN(S(=O)(=O)N2CCC3(CC2)OCCO3)CC1)N1CCN(Cc2ccccc2)CC1,9.8%
9,COc1ccc(C(=O)N/C(=C\c2cn(S(=O)(=O)N(C)C)c3ccccc23)C(=O)NC(C)C)cc1,15.9%
10,COC(=O)C1=C(N)N(c2ccccc2C(F)(F)F)C2=C(C(=O)CCC2)C1c1ccc2c(c1)OCO2 (centres unmarked),16.2%
11,CC(C)C(NC(=O)COc1ccc2ccccc2c1)C(=O)N/N=C/C=C/c1ccccc1 (centres unmarked),11.3%
12,O=C(CCNS(=O)(=O)c1ccccc1)Nc1ccccc1,17.8%
13,CN(CC(=O)NCc1ccccc1)S(=O)(=O)c1ccc2c(c1)CCC(=O)N2,9.2%
14,CN(C)c1ccc(C(CNC(=O)Cc2cccc3ccccc23)N(C)C)cc1 (centres unmarked),5.41%
15,CCCCNCc1cc(OC)c(OCC(N)=O)cc1Br,14.8%
16,COc1cc2c(cc1OC)C(COc1ccccc1OC)N(C(C)=O)CC2 (centres unmarked),18.9%
17,CCOC(=O)N1CCC(C(N)=O)CC1,13.2%
18,O=C(N/N=C/C=C/c1ccco1)c1cnccn1,9.26%
19,O=c1c2ccc([N+](=O)[O-])cc2ncn1Cc1ccccc1C(F)(F)F,-10.5%
20,CC(=NCCCn1ccnc1)c1c(-c2ccccc2)[nH]n(-c2nc3ccccc3s2)c1=O,-5.59%
21,CC(=O)NC(C)c1cc(Cl)c2cccnc2c1O (centres unmarked),12.1%
22,CC(=O)NC(c1ccc(C)cc1)c1cc(Cl)c2cccnc2c1O (centres unmarked),16.3%
23,O=C(Nc1ccc(Br)cc1)c1cccc2c1C(=O)N(C1CCCCC1)C2,12.4%

row,SMILES,"hERG current change (%, negative = inhibition) at 1uM"
1,COc1ccc2nc(C)cc(N3CCOCC3)c2c1,7.31%
2,CCn1c(COc2ccc(Cl)cc2)nnc1SC1CCc2ccccc2C1=O (centres unmarked),15.6%
3,Cc1noc(C)c1S(=O)(=O)Nc1ccc(C(C)C)cc1,-2.91%
4,COc1ccc(N(C)C(=O)c2cc3c(Cl)nc4ccccc4c3s2)cc1,-2.25%
5,COc1ccc(S(=O)(=O)N2CCC(c3cc(-c4cccc5ccccc45)n[nH]3)CC2)cc1,16.2%
6,O=S(=O)(NCC1NCCc2ccccc21)c1ccccc1 (centres unmarked),-3.85%
7,O=C(Nc1ccccc1)c1cccc(=O)o1,17.3%
8,CCN1CCN(c2nc(NCCO)c3ccccc3n2)CC1.Cl,9%
9,COc1cccc(OC)c1C(=O)Nc1ccc(CN2CCOCC2)cc1,7.48%
10,CC1=NNC(=O)C1CCC(=O)N/N=C(/C)c1ccc([N+](=O)[O-])cc1 (centres unmarked),4.22%
11,CCn1c2ccccc2c2cc(/C=N/NC(=O)c3ccncc3)ccc21,22.4%
12,CC(C)(C)NCC(=O)c1c[nH]c2ccccc12,8.44%
13,Cc1ccc(S(=O)(=O)N(C)c2nc3ccccc3n3c(C(C)C)nnc23)cc1,12.2%
14,CN(CC(=O)OCC(=O)NCc1ccccc1)S(=O)(=O)c1ccc(Cl)cc1,6.55%
15,COc1ncccc1C(=O)N1CCC(n2nccc2NC(=O)CC(C)C)CC1,17.1%
16,COc1cc(C(=O)OCC(=O)Nc2c(C)n(C)n(-c3ccccc3)c2=O)c([N+](=O)[O-])cc1OC,15%
17,CCOC(=O)c1c(-c2ccccc2)csc1NC(=O)c1cc2ccccc2oc1=O,5.41%
18,O=C(NCCCn1ccnc1)c1ccc(-c2ccccc2)cc1,-8.81%
19,CC1Cc2ccccc2N1C(=O)c1ccc(N2CCCC2)c([N+](=O)[O-])c1 (centres unmarked),13.9%
20,COc1ccc(/C=C2\N=C(C)OC2=O)cc1OC,12%
21,O=C(c1nc(-c2ccccc2)n(-c2ccccc2)n1)N1CCN(S(=O)(=O)c2ccccc2)CC1,7.25%
22,CC(C)NC(=O)C1(c2ccccc2)CCOCC1,9.33%
23,CCOc1cc(S(=O)(=O)Nc2ccc(CC)cc2)ccc1Cl,-1.58%

row,SMILES,"hERG current change (%, negative = inhibition) at 1uM"
1,COc1cc(NC(=O)Nc2cccc([N+](=O)[O-])c2)cc(OC)c1,5.53%
2,COc1ccc(OC)c(NC(=O)N2C[C@H]3C[C@@H](C2)c2cccc(=O)n2C3)c1,-11.2%
3,O=C(CCc1ccccc1)NNC(=O)c1ccccc1Br,7.53%
4,CCCn1nnc(NC(=O)c2ccc3ccccc3c2)n1,-7.02%
5,O=C(CCC1CCCCC1)Nc1ccccc1O,4.48%
6,Cc1cc(C)c(C)c(S(=O)(=O)Nc2ccc3cn[nH]c3c2)c1C,8.9%
7,OCCCNC(=S)Nc1ccc(Nc2ccccc2)cc1,6.53%
8,COc1ccccc1NC(=O)COC(=O)CCS(=O)(=O)c1ccc(C)cc1,17.2%
9,CN(Cc1ccccc1F)C(=O)C(Cc1ccccc1)NC(=O)c1ccccc1 (centres unmarked),-7.1%
10,Fc1c(F)c(F)c(CSc2nc3ccccc3[nH]2)c(F)c1F,5.9%
11,COc1ccccc1N1CC(C)(C)C(=O)N(C(=O)c2ccc(C)cc2)C1=S,7.12%
12,COc1ccc(C)cc1S(=O)(=O)Nc1ccc2c(c1)N(C(C)=O)CCC2,12.9%
13,Cc1ccc(C(C)(C)C)c(OCCCCN2CCCC2)c1,-0.547%
14,CC1C=CCC2C(=O)N(c3cccc(C(=O)N4CCCCCC4)c3)C(=O)C12 (centres unmarked),4.96%
15,Cc1onc(-c2ccccc2)c1C(=O)N/N=C/c1ccccc1OC(C)C,9.46%
16,Cc1cccc(Cn2c(NCCO)nc3c2c(=O)n(C)c(=O)n3C)c1,8.23%
17,CCc1ccc(C2=NN(C(C)=O)C(c3ccco3)C2)cc1 (centres unmarked),0.829%
18,C#Cc1ccc([C@@H]2C=C(C(=O)N3CCN(Cc4ccc5c(c4)OCO5)CC3)O[C@H](OCC)[C@H]2CCCO)cc1,-3.77%
19,O=c1cc(-c2ccccc2)cc(-c2ccccc2)n1CCO,5.1%
20,Cc1cc(Cc2c(O)[nH]c(=S)[nH]c2=O)ccc1OC(C)C,13.8%
21,CC(C)CC(=O)Nc1cccc(NC(=O)CC(C)C)n1,13.2%
22,CCOC(=O)c1nnn(-c2nonc2N)c1-c1ccccc1Cl,14.9%
23,COc1cccc(C(=O)Nc2ccc3c(c2)C(=O)c2ccccc2C3=O)c1,6.36%

row,SMILES,"hERG current change (%, negative = inhibition) at 1uM"
1,O=C1N=C(N2CCOCC2)CS1,8.27%
2,Cc1cccc(C)c1NC(=O)CCCSc1nnc(N)s1,8.09%
3,COc1ccccc1NS(=O)(=O)c1cccc(NC(=O)c2[nH]c(C)c(C(C)=O)c2C)c1,-1.44%
4,CCOC(=O)c1c[nH]c2c(Cl)ccc(Cl)c2c1=O,5.48%
5,COc1cccc(CNC(=O)CSc2nc3c(oc4ccccc43)c(=O)n2CC2CCCO2)c1 (centres unmarked),2.07%
6,C=CCN(c1ccccc1)S(=O)(=O)c1cccc(C(=O)NC2CCC(O)CC2)c1 (centres unmarked),-2.58%
7,Cc1ccc(C(=O)O)cc1NC(=S)NC(=O)c1ccc([N+](=O)[O-])c(C)c1,7.54%
8,OCCC1CN(Cc2cnc(N3CCCC3)s2)CCN1C1CCCC1 (centres unmarked),6.87%
9,CCCNc1c(NC(=O)C2CCC(C)CC2)c(=O)oc2ccccc12 (centres unmarked),10.6%
10,CCOc1ccc(CNC(=O)CCSCc2ccccc2F)cc1OC,14.1%
11,Cc1ccc(S(=O)(=O)CCC(=O)OC(C)C(=O)c2c(C)[nH]c3ccccc23)cc1 (centres unmarked),12.8%
12,CN(CC(=O)Nc1ccc(S(=O)(=O)N2CCCC2)cc1)Cc1c(F)cccc1Cl,6.9%
13,c1ccc(CCOn2ccnc2)cc1,14.7%
14,O=C(NC1CC2CCCC(C1)N2C(=O)NCc1ccccc1)C1CC1 (centres unmarked),-15.4%
15,O=C(Nc1ccc(NC(=O)c2cccs2)cc1)c1cccnc1,13.4%
16,Cc1[nH]cnc1C(=O)N/N=C/c1c(Cl)cccc1Cl,17.6%
17,Cc1noc(C)c1C(=O)N1CCN(c2cccc(Cl)c2)CC1,6.48%
18,CCN(CC)c1ccc(/C=C2\C(=O)NC(=O)N(Cc3ccco3)C2=O)cc1,0.975%
19,O=C(NCCOc1ccccc1)C(c1ccccc1)c1ccccc1,7.36%
20,Cc1ccc(-n2cc(CNCCc3ncc(C)[nH]3)c(-c3ccc(F)cc3)n2)cc1,-5.51%
